Data from the supplement of paper PMC8728848.
The list shows a part of the results.

Assays:
Assay in all cases: glycan array binding signal (z-score within array); higher = stronger binding
Conditions in all cases: glycan notation: IUPAC condensed, linker removed; mutation: Y228W
[1] = biological target: GlcNAc(a1-6)Gal(b1-4)GlcNAc
Method in brief: (§1)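 Negative Z-scores can be read as non-binding. The Z-score is calculated within each array and then averaged across arrays of one protein sequence at different concentrations or buffers and across linkers. Arrays, 3228 in all, were curated from the Consortium for Functional Glycomics database and kept only where the protein sequence was available.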

[2] = biological target: GlcNAc(b1-2)Gal(b1-3)GalNAc
Method in brief: as §1

[3] = biological target: GlcNAc(b1-2)Man(a1-3)[GlcNAc(b1-2)Man(a1-6)]Man(b1-4)GlcNAc(b1-4)GlcNAc
Method in brief: as §1

[4] = biological target: GlcNAc(b1-2)Man(a1-3)[GlcNAc(b1-2)Man(a1-6)]Man(b1-4)GlcNAc(b1-4)[Fuc(a1-6)]GlcNAc
Method in brief: as §1

[5] = biological target: GlcNAc(b1-2)Man(a1-3)[GlcNAc(b1-4)][GlcNAc(b1-2)Man(a1-6)]Man(b1-4)GlcNAc(b1-4)GlcNAc
Method in brief: as §1

[6] = biological target: GlcNAc(b1-2)Man(a1-3)[GlcNAc(b1-4)][GlcNAc(b1-2)Man(a1-6)]Man(b1-4)GlcNAc(b1-4)[Fuc(a1-6)]GlcNAc
Method in brief: as §1

[7] = biological target: GlcNAc(b1-2)[GlcNAc(b1-4)]Man(a1-3)[GlcNAc(b1-2)Man(a1-6)]Man(b1-4)GlcNAc(b1-4)GlcNAc
Method in brief: as §1

[8] = biological target: GlcNAc(b1-2)[GlcNAc(b1-4)]Man(a1-3)[GlcNAc(b1-4)][GlcNAc(b1-2)Man(a1-6)]Man(b1-4)GlcNAc(b1-4)GlcNAc
Method in brief: as §1

[9] = biological target: GlcNAc(b1-2)[GlcNAc(b1-4)]Man(a1-3)[GlcNAc(b1-4)][GlcNAc(b1-2)[GlcNAc(b1-6)]Man(a1-6)]Man(b1-4)GlcNAc(b1-4)GlcNAc
Method in brief: as §1

[10] = biological target: GlcNAc(b1-2)[GlcNAc(b1-4)]Man(a1-3)[GlcNAc(b1-4)][GlcNAc(b1-2)[GlcNAc(b1-6)]Man(a1-6)]Man(b1-4)GlcNAc(b1-4)[Fuc(a1-6)]GlcNAc
Method in brief: as §1

[11] = biological target: GlcNAc(b1-2)[GlcNAc(b1-6)]Man(a1-6)[GlcNAc(b1-2)Man(a1-3)]Man(b1-4)GlcNAc(b1-4)GlcNAc
Method in brief: as §1

[12] = biological target: GlcNAc(b1-2)[GlcNAc(b1-6)]Man(a1-6)[GlcNAc(b1-2)Man(a1-3)]Man(b1-4)GlcNAc(b1-4)[Fuc(a1-6)]GlcNAc
Method in brief: as §1

[13] = biological target: GlcNAc(b1-2)[GlcNAc(b1-6)]Man(a1-6)[GlcNAc(b1-4)][GlcNAc(b1-2)Man(a1-3)]Man(b1-4)GlcNAc(b1-4)GlcNAc
Method in brief: as §1

GlcNAc(b1-3)Fuc = biological target: GlcNAc(b1-3)Fuc
Method in brief: as §1

GlcNAc(b1-3)Gal = biological target: GlcNAc(b1-3)Gal
Method in brief: as §1

[14] = biological target: GlcNAc(b1-3)Gal(b1-3)GalNAc
Method in brief: as §1

GlcNAc(b1-3)Gal(b1-4)Glc = biological target: GlcNAc(b1-3)Gal(b1-4)Glc
Method in brief: as §1

[15] = biological target: GlcNAc(b1-3)Gal(b1-4)GlcNAc
Method in brief: as §1

[16] = biological target: GlcNAc(b1-3)Gal(b1-4)GlcNAc(b1-2)Man(a1-3)[GlcNAc(b1-3)Gal(b1-4)GlcNAc(b1-2)Man(a1-6)]Man(b1-4)GlcNAc(b1-4)GlcNAc
Method in brief: as §1

[17] = biological target: GlcNAc(b1-3)Gal(b1-4)GlcNAc(b1-2)Man(a1-3)[GlcNAc(b1-3)Gal(b1-4)GlcNAc(b1-2)Man(a1-6)]Man(b1-4)GlcNAc(b1-4)[Fuc(a1-6)]GlcNAc
Method in brief: as §1

[18] = biological target: GlcNAc(b1-3)Gal(b1-4)GlcNAc(b1-2)[GlcNAc(b1-3)Gal(b1-4)GlcNAc(b1-6)]Man(a1-6)[GlcNAc(b1-3)Gal(b1-4)GlcNAc(b1-2)Man(a1-3)]Man(b1-4)GlcNAc(b1-4)GlcNAc
Method in brief: as §1

[19] = biological target: GlcNAc(b1-3)Gal(b1-4)GlcNAc(b1-3)Gal(b1-4)GlcNAc
Method in brief: as §1

[20] = biological target: GlcNAc(b1-3)Gal(b1-4)GlcNAc(b1-3)Gal(b1-4)GlcNAc(b1-2)Man(a1-3)[GlcNAc(b1-3)Gal(b1-4)GlcNAc(b1-3)Gal(b1-4)GlcNAc(b1-2)Man(a1-6)]Man(b1-4)GlcNAc(b1-4)GlcNAc
Method in brief: as §1

[21] = biological target: GlcNAc(b1-3)Gal(b1-4)GlcNAc(b1-3)Gal(b1-4)GlcNAc(b1-2)Man(a1-3)[GlcNAc(b1-3)Gal(b1-4)GlcNAc(b1-3)Gal(b1-4)GlcNAc(b1-2)Man(a1-6)]Man(b1-4)GlcNAc(b1-4)[Fuc(a1-6)]GlcNAc
Method in brief: as §1

[22] = biological target: GlcNAc(b1-3)Gal(b1-4)GlcNAc(b1-3)Gal(b1-4)GlcNAc(b1-2)[GlcNAc(b1-3)Gal(b1-4)GlcNAc(b1-3)Gal(b1-4)GlcNAc(b1-6)]Man(a1-6)[GlcNAc(b1-3)Gal(b1-4)GlcNAc(b1-3)Gal(b1-4)GlcNAc(b1-2)Man(a1-3)]Man(b1-4)GlcNAc(b1-4)[Fuc(a1-6)]GlcNAc
Method in brief: as §1

[23] = biological target: GlcNAc(b1-3)Gal(b1-4)GlcNAc(b1-3)Gal(b1-4)GlcNAc(b1-3)Gal(b1-4)GlcNAc(b1-2)Man(a1-3)[GlcNAc(b1-3)Gal(b1-4)GlcNAc(b1-3)Gal(b1-4)GlcNAc(b1-3)Gal(b1-4)GlcNAc(b1-2)Man(a1-6)]Man(b1-4)GlcNAc(b1-4)GlcNAc
Method in brief: as §1

[24] = biological target: GlcNAc(b1-3)Gal(b1-4)GlcNAc(b1-3)Gal(b1-4)GlcNAc(b1-3)Gal(b1-4)GlcNAc(b1-2)Man(a1-3)[GlcNAc(b1-3)Gal(b1-4)GlcNAc(b1-3)Gal(b1-4)GlcNAc(b1-3)Gal(b1-4)GlcNAc(b1-2)Man(a1-6)]Man(b1-4)GlcNAc(b1-4)[Fuc(a1-6)]GlcNAc
Method in brief: as §1

[25] = biological target: GlcNAc(b1-3)Gal(b1-4)GlcNAc(b1-3)Gal(b1-4)GlcNAc(b1-3)Gal(b1-4)GlcNAc(b1-2)[GlcNAc(b1-3)Gal(b1-4)GlcNAc(b1-3)Gal(b1-4)GlcNAc(b1-3)Gal(b1-4)GlcNAc(b1-6)]Man(a1-6)[GlcNAc(b1-3)Gal(b1-4)GlcNAc(b1-3)Gal(b1-4)GlcNAc(b1-3)Gal(b1-4)GlcNAc(b1-2)Man(a1-3)]Man(b1-4)GlcNAc(b1-4)[Fuc(a1-6)]GlcNAc
Method in brief: as §1

[26] = biological target: GlcNAc(b1-3)Gal(b1-4)GlcNAc(b1-3)Gal(b1-4)GlcNAc(b1-3)Gal(b1-4)GlcNAc(b1-3)Gal(b1-4)GlcNAc(b1-2)Man(a1-3)[GlcNAc(b1-3)Gal(b1-4)GlcNAc(b1-3)Gal(b1-4)GlcNAc(b1-3)Gal(b1-4)GlcNAc(b1-3)Gal(b1-4)GlcNAc(b1-2)Man(a1-6)]Man(b1-4)GlcNAc(b1-4)GlcNAc
Method in brief: as §1

[27] = biological target: GlcNAc(b1-3)Gal(b1-4)GlcNAc(b1-3)Gal(b1-4)GlcNAc(b1-3)Gal(b1-4)GlcNAc(b1-3)Gal(b1-4)GlcNAc(b1-2)Man(a1-3)[GlcNAc(b1-3)Gal(b1-4)GlcNAc(b1-3)Gal(b1-4)GlcNAc(b1-3)Gal(b1-4)GlcNAc(b1-3)Gal(b1-4)GlcNAc(b1-2)Man(a1-6)]Man(b1-4)GlcNAc(b1-4)[Fuc(a1-6)]GlcNAc
Method in brief: as §1

B1: Epa1-NP-mutant-Y228W (Candida glabrata), Q6VBJ0 (protein)
chain: MILNPALFLNKCVCIYTTLILLLLTNGGYATSSNDISLASKDPTTFPLGCSPDITTPKKGLSMELYSYDFRKKGSYPCWDAAYLDPNYPRTGYKSHRLLAKVDGVTGNINFYYHATKGCTPQLGHLPASYNYPKPLTMTNFTMLLYGYFRPKVTGFHTFTISADDLLFVNFGAGNAFDCCRRDSSADHFGNYQAYAIWGSKTAKDELTVHLDAGVYYPIRLFYNNREWDGALSFTFKTESNENTVSDFSEYFFSLDDTEEGCPGLISYDSSCASVKTSKIIGIDYHTETPNENLVPITKTIYHLGIPCTGTTTTPLCGSGFYDPLANKCVTINTSSTSSVTKTTSHTTSKEVSFHSSISSQKTLIPKSIPSPYGPIKSQSIPTEMETSSEISSSEYAFSDVISTPSHSPYTKKHSSLNSSSYTSTVIHSLTSYSISQGIFSTSLSEQNITSKSSTDKFSTATSMSNNITQSSIIISQFSTNNENYTTTSMHTSSDKISTETLNNSISTTTSILFSNSSTILKNNTTIISSDKDTHYHPVNPTIVCSTNKTEIICASITQPSISNSNNHWSSSVLKFNSTTVRSTLPSSAGSNETSINVPFSSSTESNTSTSSTSTSNSKMVRSTLPSSAGSNETSISVPFSSSTESNTSTSSTSTSNSKMVRSTLPSSAGSNETSINVPFSSSTESNTSTSSTSTSNSKTVRSTPFSSAGIIMTSLSQRNNKSASSYASSNSKCYNTADSCRKVHSTPSYLLTSSYTSEGVDYDCSLVSTKLKINDTNCVNNKHTTKSCLKTSVTTTIPTLEIKTARKSSSNTIGLHSYPTSSPNKSISSAPIIGYISSFKTIKTASPSYQTSDLTTITTITSLNNPGSTAVENTHESNDKSRKTSSNDISSKHSVIKETKDAVESSNKSHQTNTLKCSSIIIASSSHNSYESLGGTTLTLTLSKVYSPQNNDTLPFLEISEVNPSRTVLPESSKMMQYLTSTEERNKTARNTIATNIVSISTFHFEGEGNAIRMGYTQLLLMLIGIIVMNIGT
glycan array binding signal (z-score) [1]: 0.416
glycan array binding signal (z-score) [2]: -0.311
glycan array binding signal (z-score) [3]: -0.079
glycan array binding signal (z-score) [4]: -0.3
glycan array binding signal (z-score) [5]: -0.224
glycan array binding signal (z-score) [6]: -0.309
glycan array binding signal (z-score) [7]: -0.038
glycan array binding signal (z-score) [8]: -0.259
glycan array binding signal (z-score) [9]: -0.384
glycan array binding signal (z-score) [10]: -0.045
glycan array binding signal (z-score) [11]: -0.333
glycan array binding signal (z-score) [12]: -0.032
glycan array binding signal (z-score) [13]: -0.347
glycan array binding signal (z-score) (GlcNAc(b1-3)Fuc): -0.242
glycan array binding signal (z-score) (GlcNAc(b1-3)Gal): -0.421
glycan array binding signal (z-score) [14]: -0.024
glycan array binding signal (z-score) (GlcNAc(b1-3)Gal(b1-4)Glc): -0.087
glycan array binding signal (z-score) [15]: -0.167
glycan array binding signal (z-score) [16]: -0.088
glycan array binding signal (z-score) [17]: 0.114
glycan array binding signal (z-score) [18]: 0.255
glycan array binding signal (z-score) [19]: -0.186
glycan array binding signal (z-score) [20]: -0.022
glycan array binding signal (z-score) [21]: 0.216
glycan array binding signal (z-score) [22]: 0.065
glycan array binding signal (z-score) [23]: -0.342
glycan array binding signal (z-score) [24]: 0.23
glycan array binding signal (z-score) [25]: 0.373
glycan array binding signal (z-score) [26]: -0.251
glycan array binding signal (z-score) [27]: -0.248
